Test results published in PMC6823300, “The molecular basis of monopolin recruitment to the kinetochore” (Chromosoma, 2019).
Results are given in words; binding and its absence hold for the method and conditions named. For some assays here: Binding seen in cells or lysates may run through a third protein. Some results given as binding are weak or reduced against the parent protein; the word gives no strength. For some assays here: Where a sequence is shown, tags or fusion partners need not be part of it.

T1: S. pombe His6-Csm1^125–261 (S. pombe) (UniProt O13684)
T1 sequence: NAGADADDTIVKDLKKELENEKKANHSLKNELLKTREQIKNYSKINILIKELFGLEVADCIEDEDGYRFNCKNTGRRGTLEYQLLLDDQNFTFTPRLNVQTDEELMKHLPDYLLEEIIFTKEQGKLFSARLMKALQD

T2: S. cerevisiae (Sc) Csm1^69–181 (S. cerevisiae) (UniProt P25651)
T2 sequence: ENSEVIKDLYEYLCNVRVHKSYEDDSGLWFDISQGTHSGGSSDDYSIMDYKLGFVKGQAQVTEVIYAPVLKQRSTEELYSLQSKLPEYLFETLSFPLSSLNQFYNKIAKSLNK

T3: Sc His6-Csm1^69–190 (S. cerevisiae) (UniProt P25651)
T3 sequence: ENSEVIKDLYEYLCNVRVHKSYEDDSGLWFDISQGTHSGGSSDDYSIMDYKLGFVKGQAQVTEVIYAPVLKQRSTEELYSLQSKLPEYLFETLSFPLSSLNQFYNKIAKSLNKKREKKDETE

T4: Sp Mis13 5–17 peptide (Dsn1-N/Box 1), fluorescein isothiocyanate-labelled (S. pombe)
T4 sequence (peptide, fluorescein isothiocyanate-labelled at its N-terminus): PEEQEGFVFVRKG


Tests used:
[1] = biological target: T1, S. pombe His6-Csm1^125–261 (S. pombe); experiment: pull-down; Ni2+ pull-down: 10 μl in vitro translated 35S-labelled MBP-fused prey with 10 μg His6-tagged bait (S. pombe Csm1 125–261 or S. cerevisiae Csm1 69–190) in 50 μl 20 mM HEPES pH 7.5, 150 mM NaCl, 20 mM imidazole, 5% glycerol, 1 mM DTT, 0.1% NP-40, 90 min at 4 °C, then Ni-NTA beads; SDS-PAGE and phosphorimager; only the target purified
[2] = biological target: T2, S. cerevisiae (Sc) Csm1^69–181 (S. cerevisiae); experiment: co-expression and co-purification; co-expressed in E. coli and purified as a stable complex (Ni affinity, ion exchange, size exclusion)
[3] = biological target: T3, Sc His6-Csm1^69–190 (S. cerevisiae); experiment: pull-down; Ni2+ pull-down: 10 μl in vitro translated 35S-labelled MBP-fused prey with 10 μg His6-tagged bait (S. pombe Csm1 125–261 or S. cerevisiae Csm1 69–190) in 50 μl 20 mM HEPES pH 7.5, 150 mM NaCl, 20 mM imidazole, 5% glycerol, 1 mM DTT, 0.1% NP-40, 90 min at 4 °C, then Ni-NTA beads; SDS-PAGE and phosphorimager; only the target purified
[4] = biological target: T4, Sp Mis13 5–17 peptide (Dsn1-N/Box 1), fluorescein isothiocyanate-labelled (S. pombe); experiment: fluorescence polarisation; Csm1 125–261 at 20 nM-250 μM with 20 nM FITC-labelled Mis13 5–17 peptide; 20 mM Tris 7.5, 300 mM NaCl, 10% glycerol, 0.01% NP-40, 1 mM DTT; triplicate; single-site binding model; both purified

binding [3] | Binder | other results
– | MBP-S. pombe Mis13 (Dsn1) residues 1–100, wild type, in vitro translated (domain or fragment, UniProt Q9UUB5 1-100) MKRKPEEQEGFVFVRKGKEKAGSKRRKSSVEDDPDTSQTDGLVELPVSDTPIVKRNKELRKGKGRRSSLDQRGKRASSIGTGFEALPHADVPSHEYYRHI | binding [1]: binds
– | DLKFKRHKNKHIQGFPTLGERLDNLQDIKKAKRVENFNSS (domain or fragment, UniProt P40568 71-110) [Sc Dsn1^71–110 (co-expressed, without MBP)] | binding [2]: binds
binds | DAKAKRHKNKHIQGFPTLGERLDNLQDIKKAKRVENFNSS (domain or fragment, UniProt P40568 71-110) [MBP-S. cerevisiae Dsn1 71–110 L72A F74A] | –
binds | DLKFKRHKNKHIQGFPTDGERDDNDQDIKKAKRVENFNSS (domain or fragment, UniProt P40568 71-110) [MBP-S. cerevisiae Dsn1 71–110 L88D L92D L95D] | –
binds | DLKFKRHKNKHIQGFPTLGARLDALQAIKKAKRVENFNSS (domain or fragment, UniProt P40568 71-110) [MBP-S. cerevisiae Dsn1 71–110 E90A N94A D97A] | –
binds | DLKFKRHKNKHIQGFPTLGKRLDKLQKIKKAKRVENFNSS (domain or fragment, UniProt P40568 71-110) [MBP-S. cerevisiae Dsn1 71–110 E90K N94K D97K] | –
binds | DLKFKRHKNKHIQGFPTAGERADNAQDIKKAKRVENFNSS (domain or fragment, UniProt P40568 71-110) [MBP-S. cerevisiae Dsn1 71–110 L88A L92A L95A] | –
no binding | DLKFKRHKNKHIQGFPTLGERLDNLQDIKKAKRDENDNSS (domain or fragment, UniProt P40568 71-110) [MBP-S. cerevisiae Dsn1 71–110 V104D F107D] | –
no binding | DLKFKRHKNKHIQGFPTLGERLDNLQDIKKAKRAENANSS (domain or fragment, UniProt P40568 71-110) [MBP-S. cerevisiae Dsn1 71–110 V104A F107A] | –
binds | DLKFKRHKNKHIQGFPTLGERLDNLQDIKKAKRVENFNSS (domain or fragment, UniProt P40568 71-110) [MBP-S. cerevisiae Dsn1 residues 71–110 (Box 1-2-3 region), wild type, in vitro translated] | –
– | S. pombe Csm1^125–261 I241D mutant (domain or fragment, UniProt O13684 125-261) NAGADADDTIVKDLKKELENEKKANHSLKNELLKTREQIKNYSKINILIKELFGLEVADCIEDEDGYRFNCKNTGRRGTLEYQLLLDDQNFTFTPRLNVQTDEELMKHLPDYLLEEDIFTKEQGKLFSARLMKALQD | binding [4]: no binding (tested: 250 μM)
